# Results taken from the supplement of paper PMC8728848.
# The other results are listed elsewhere or left out.
# B1: NKp30 (Homo sapiens), O14931 (protein)
# chain: MAWMLLLILIMVHPGSCALWVSQPPEIRTLEGSSAFLPCSFNASQGRLAIGSVTWFRDEVVPGKEVRNGTPERFGRLAPLASSRFLHDHQAELHIRDVRGHDASIYVCRVEVLGLGVGTGNGTRLVVRKEHPQLGAGTHADPEAPEAEGAPSVFLFPPKPKDTLMISRTPEVTCVVVDVSHEDPEVKFNWYVDGVEVHNAKTPREEQYNSTYRVVSVLTVLHQDWLNGKEYKCKVSNKALPAPIEKTISKAKGQPREPQVYTLPPSRDELTKNQVSLTCLVKGFYPSDIAVEWESNGQPENNYKTTPPVLDSDGSFFLYSKLTVDKSRWQQGNVFSCSVMHEALHNHYTQKSLSLSPGK
# Experiments:
# Experiment in all cases: glycan array binding signal (z-score within array); higher = stronger binding
# Details in all cases: glycan notation: IUPAC condensed, linker removed
# [1] = biological target: Fuc(a1-2)[GalNAc(a1-3)]Gal(b1-4)[Fuc(a1-3)]GlcNAc
# How it was run: (§1)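 Glycan array binding is given as a within-array Z-score, which can be read as non-binding when negative. The arrays, 3228 of them, came from the Consortium for Functional Glycomics database and were retained only where the protein sequence was available. Z-scores were averaged across arrays of the same protein sequence at different concentrations or buffers and across linkers.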
# [2] = biological target: Fuc(a1-2)[GalNAc(a1-4)]Gal(b1-4)GlcNAc
# How it was run: as §1
# [3] = biological target: Fuc(a1-2)[GalNAc(b1-3)]Gal
# How it was run: as §1
# Fuc(a1-3)GlcNAc = biological target: Fuc(a1-3)GlcNAc
# How it was run: as §1
# [4] = biological target: Fuc(a1-3)[Gal(b1-4)]Glc6S
# How it was run: as §1
# [5] = biological target: Fuc(a1-3)[Gal(b1-4)]GlcNAc
# How it was run: as §1
# [6] = biological target: Fuc(a1-3)[Gal(b1-4)]GlcNAc(b1-2)Man(a1-3)[Fuc(a1-3)[Gal(b1-4)]GlcNAc(b1-2)Man(a1-6)]Man(b1-4)GlcNAc(b1-4)GlcNAc
# How it was run: as §1
# [7] = biological target: Fuc(a1-3)[Gal(b1-4)]GlcNAc(b1-2)Man(a1-6)[Gal(b1-4)GlcNAc(b1-2)Man(a1-3)]Man(b1-4)GlcNAc(b1-4)GlcNAc
# How it was run: as §1
# [8] = biological target: Fuc(a1-3)[Gal(b1-4)]GlcNAc(b1-3)Gal(b1-3)[Fuc(a1-4)]GlcNAc
# How it was run: as §1
# [9] = biological target: Fuc(a1-3)[Gal(b1-4)]GlcNAc(b1-4)Gal(b1-4)[Fuc(a1-3)]GlcNAc
# How it was run: as §1
# [10] = biological target: Fuc(a1-3)[Gal(b1-4)]GlcNAc(b1-4)Gal(b1-4)[Fuc(a1-3)]GlcNAc(b1-4)Gal(b1-4)[Fuc(a1-3)]GlcNAc
# How it was run: as §1
# [11] = biological target: Fuc(a1-3)[Gal(b1-4)]GlcNAc6S
# How it was run: as §1
# [12] = biological target: Fuc(a1-3)[Gal3S(b1-4)]Glc6S
# How it was run: as §1
# [13] = biological target: Fuc(a1-3)[Gal3S(b1-4)]GlcNAc
# How it was run: as §1
# [14] = biological target: Fuc(a1-3)[Gal3S(b1-4)]GlcNAc6S
# How it was run: as §1
# [15] = biological target: Fuc(a1-3)[GalNAc(b1-4)]GlcNAc
# How it was run: as §1
# Fuc(a1-4)GlcNAc = biological target: Fuc(a1-4)GlcNAc
# How it was run: as §1
# Fuc(b1-3)GlcNAc = biological target: Fuc(b1-3)GlcNAc
# How it was run: as §1
# Gal(a1-2)Gal = biological target: Gal(a1-2)Gal
# How it was run: as §1
# Gal(a1-3)Gal = biological target: Gal(a1-3)Gal
# How it was run: as §1
# Gal(a1-3)Gal(b1-3)GlcNAc = biological target: Gal(a1-3)Gal(b1-3)GlcNAc
# How it was run: as §1
# Gal(a1-3)Gal(b1-4)Glc = biological target: Gal(a1-3)Gal(b1-4)Glc
# How it was run: as §1
# Gal(a1-3)Gal(b1-4)GlcNAc = biological target: Gal(a1-3)Gal(b1-4)GlcNAc
# How it was run: as §1
# [16] = biological target: Gal(a1-3)Gal(b1-4)[Fuc(a1-3)]GlcNAc
# How it was run: as §1
# Gal(a1-3)GalNAc = biological target: Gal(a1-3)GalNAc
# How it was run: as §1
# [17] = biological target: Gal(a1-3)[Gal(a1-4)]Gal(b1-4)GlcNAc
# How it was run: as §1
# Gal(a1-4)Gal(b1-4)Glc = biological target: Gal(a1-4)Gal(b1-4)Glc
# How it was run: as §1
# Gal(a1-4)Gal(b1-4)GlcNAc = biological target: Gal(a1-4)Gal(b1-4)GlcNAc
# How it was run: as §1
# Gal(a1-4)GlcNAc = biological target: Gal(a1-4)GlcNAc
# How it was run: as §1
# Gal(a1-6)Glc = biological target: Gal(a1-6)Glc
# How it was run: as §1
# Gal(b1-2)Gal = biological target: Gal(b1-2)Gal
# How it was run: as §1
# Gal(b1-3)Gal = biological target: Gal(b1-3)Gal
# How it was run: as §1
# Gal(b1-3)Gal(b1-4)GlcNAc = biological target: Gal(b1-3)Gal(b1-4)GlcNAc
# How it was run: as §1
# Gal(b1-3)GalNAc = biological target: Gal(b1-3)GalNAc
# How it was run: as §1
# [18] = biological target: Gal(b1-3)GalNAc(b1-3)Gal(a1-4)Gal(b1-4)Glc
# How it was run: as §1
# [19] = biological target: Gal(b1-3)GalNAc(b1-4)Gal(b1-4)Glc
# How it was run: as §1
# [20] = biological target: Gal(b1-3)GalNAc(b1-4)[Neu5Ac(a2-3)]Gal(b1-4)Glc
# How it was run: as §1
# Gal(b1-3)GlcNAc = biological target: Gal(b1-3)GlcNAc
# How it was run: as §1
# [21] = biological target: Gal(b1-3)GlcNAc(b1-2)Man(a1-3)[Gal(b1-3)GlcNAc(b1-2)Man(a1-6)]Man(b1-4)GlcNAc(b1-4)GlcNAc
# How it was run: as §1
# [22] = biological target: Gal(b1-3)GlcNAc(b1-3)Gal(b1-3)GlcNAc
# How it was run: as §1
# [23] = biological target: Gal(b1-3)GlcNAc(b1-3)Gal(b1-4)Glc
# How it was run: as §1
# [24] = biological target: Gal(b1-3)GlcNAc(b1-3)Gal(b1-4)GlcNAc
# How it was run: as §1
# [25] = biological target: Gal(b1-3)[Fuc(a1-4)]GlcNAc
# How it was run: as §1
# [26] = biological target: Gal(b1-3)[Fuc(a1-4)]GlcNAc(b1-3)Gal(b1-3)[Fuc(a1-4)]GlcNAc
# How it was run: as §1
# [27] = biological target: Gal(b1-3)[Fuc(a1-4)]GlcNAc(b1-3)Gal(b1-4)GlcNAc
# How it was run: as §1
binder,measurement,setting,value
B1,glycan array binding signal (z-score),[1],0.416
same,glycan array binding signal (z-score),[2],-0.379
same,glycan array binding signal (z-score),[3],0.39
same,glycan array binding signal (z-score),Fuc(a1-3)GlcNAc,13.9
same,glycan array binding signal (z-score),[4],0.215
same,glycan array binding signal (z-score),[5],-0.152
same,glycan array binding signal (z-score),[6],-0.546
same,glycan array binding signal (z-score),[7],-0.219
same,glycan array binding signal (z-score),[8],-0.545
same,glycan array binding signal (z-score),[9],-0.058
same,glycan array binding signal (z-score),[10],0.413
same,glycan array binding signal (z-score),[11],0.056
same,glycan array binding signal (z-score),[12],0.879
same,glycan array binding signal (z-score),[13],0.207
same,glycan array binding signal (z-score),[14],0.526
same,glycan array binding signal (z-score),[15],-0.395
same,glycan array binding signal (z-score),Fuc(a1-4)GlcNAc,-0.531
same,glycan array binding signal (z-score),Fuc(b1-3)GlcNAc,-0.253
same,glycan array binding signal (z-score),Gal(a1-2)Gal,1.41
same,glycan array binding signal (z-score),Gal(a1-3)Gal,1.89
same,glycan array binding signal (z-score),Gal(a1-3)Gal(b1-3)GlcNAc,0.086
same,glycan array binding signal (z-score),Gal(a1-3)Gal(b1-4)Glc,2.48
same,glycan array binding signal (z-score),Gal(a1-3)Gal(b1-4)GlcNAc,0.054
same,glycan array binding signal (z-score),[16],-0.05
same,glycan array binding signal (z-score),Gal(a1-3)GalNAc,0.08
same,glycan array binding signal (z-score),[17],-0.536
same,glycan array binding signal (z-score),Gal(a1-4)Gal(b1-4)Glc,-0.332
same,glycan array binding signal (z-score),Gal(a1-4)Gal(b1-4)GlcNAc,-0.395
same,glycan array binding signal (z-score),Gal(a1-4)GlcNAc,0.433
same,glycan array binding signal (z-score),Gal(a1-6)Glc,6.49
same,glycan array binding signal (z-score),Gal(b1-2)Gal,0.837
same,glycan array binding signal (z-score),Gal(b1-3)Gal,-0.232
same,glycan array binding signal (z-score),Gal(b1-3)Gal(b1-4)GlcNAc,0.165
same,glycan array binding signal (z-score),Gal(b1-3)GalNAc,0.11
same,glycan array binding signal (z-score),[18],-0.488
same,glycan array binding signal (z-score),[19],-0.215
same,glycan array binding signal (z-score),[20],-0.671
same,glycan array binding signal (z-score),Gal(b1-3)GlcNAc,0.12
same,glycan array binding signal (z-score),[21],-0.106
same,glycan array binding signal (z-score),[22],-0.27
same,glycan array binding signal (z-score),[23],-0.365
same,glycan array binding signal (z-score),[24],-0.421
same,glycan array binding signal (z-score),[25],-0.032
same,glycan array binding signal (z-score),[26],-0.509
same,glycan array binding signal (z-score),[27],-0.678
